Test results: PubChem BioAssay AID1468 (National Center for Advancing Translational Sciences (NCATS), 2008)
Values joined by “and” are separate entries in the source; they are usually repeats but may differ in a detail not shown here. Identical values can stand only once. Hit rate of the full screen: of about 280,000 compounds, about 1,100 (0.39%) were called active. This list was built around the results that the source calls inconclusive (neither active nor inactive); the mix of calls is not that of the screen. Calls follow the shape of the dose curve; as a rule, active = well fitted inhibition curve with a large enough effect; inconclusive = small, poorly fitted or top-dose-only effect, or effect the other way; inactive = flat fitted curve, though single readings scatter. A potency beside an inconclusive call is a rough fit, not a confirmed value.

What follows are molecules tested against Microtubule-associated protein tau (Homo sapiens) (UniProt P10636) (assay: qHTS for Inhibitors of Tau Fibril Formation, Fluorescence Polarization). Conditions: K18 P301L tau heparin fibrillization, Alexa594 FP, 6 h; series mostly up to 57.7 µM; activity, negative = inhibition: at the top concentration.
Procedure, shortened: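 K18 P301L tau (15 uM unlabeled/0.24 uM Alexa 594-labeled, final) + compound + heparin 20 uM final; 100 mM NaOAc pH 7; 6 hr 37 C; ThT 30 uM final added, 1 hr RT; FP ex 555/em 632 nm.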
% is scaled to controls: 0 for no effect and ±100 for the full control effect; potency is read from the fitted curve at half-maximal effect; tags tell the direction and shape of the fitted curve.
Also: nearly all actives have a fitted effect of over 55% in size.

Chain of UniProt P10636 (P10636 whole entry, looked up): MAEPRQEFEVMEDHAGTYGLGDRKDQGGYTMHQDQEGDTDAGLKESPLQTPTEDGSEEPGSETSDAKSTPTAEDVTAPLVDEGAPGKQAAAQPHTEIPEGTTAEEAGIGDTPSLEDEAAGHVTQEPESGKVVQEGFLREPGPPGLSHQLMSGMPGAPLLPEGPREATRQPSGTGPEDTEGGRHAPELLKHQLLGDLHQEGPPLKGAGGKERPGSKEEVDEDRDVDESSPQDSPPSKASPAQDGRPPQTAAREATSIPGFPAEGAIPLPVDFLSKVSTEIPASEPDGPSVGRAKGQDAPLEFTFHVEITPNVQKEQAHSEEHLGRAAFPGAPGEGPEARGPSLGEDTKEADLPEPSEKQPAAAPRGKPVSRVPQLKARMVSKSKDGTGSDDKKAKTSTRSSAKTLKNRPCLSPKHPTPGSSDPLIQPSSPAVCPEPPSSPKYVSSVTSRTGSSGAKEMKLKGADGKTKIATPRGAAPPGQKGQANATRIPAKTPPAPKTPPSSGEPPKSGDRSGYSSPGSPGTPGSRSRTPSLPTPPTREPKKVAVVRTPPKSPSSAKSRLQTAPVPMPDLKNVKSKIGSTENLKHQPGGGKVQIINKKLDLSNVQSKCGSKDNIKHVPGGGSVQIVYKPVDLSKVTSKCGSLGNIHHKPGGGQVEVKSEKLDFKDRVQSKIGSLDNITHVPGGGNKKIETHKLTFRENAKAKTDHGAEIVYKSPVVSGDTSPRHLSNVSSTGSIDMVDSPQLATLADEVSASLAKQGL

Row | SMILES | Potency | activity, negative = inhibition
1 | Cc1ccc(-n2nc(C)c3c2NC(=O)CSC3c2ccc(O)cc2)cc1Cl (configuration not stated) | inconclusive: 12.6 µM [activator, partial curve, poor fit] | 
2 | Cc1ccc(S(=O)(=O)N2CCCCC2)cc1NC(=O)Nc1ccc(Cl)cc1Cl | inconclusive: 8.91 µM [inhibitor, partial curve] | 
3 | CC(=O)CC(=O)C1C(=O)N(C)C(=O)N(C)C1=O | inconclusive: 22.4 µM [inhibitor, single point] | 
4 | O=C1C=CC(=O)c2c(O)cccc21 | inconclusive: 14.1 µM [inhibitor, partial curve] | 
5 | CN(C(=O)Cc1ccc(Cl)c(Cl)c1)[C@H](CN1CCCC1)c1ccccc1 | inactive | 
6 | COC[C@H]1OC(=O)c2coc3c2[C@@]1(C)C1=C(C3=O)[C@@H]2CCC(=O)[C@@]2(C)C[C@H]1OC(C)=O | active: 25.1 µM | 
7 | CCCCn1c(O)c(C(CC)=NCc2ccc3c(c2)OCO3)c(=O)[nH]c1=O |  | inactive: -4.35%
8 | COc1ccc(CN2CCN(c3ccccc3F)CC2)cc1O |  | inactive: 0.984%
9 | COc1ccccc1C(=O)Nc1ccc2nc(SCC(=O)N3CCCc4ccccc43)sc2c1 | inconclusive: 17.8 µM [inhibitor, partial curve] | 
10 | CCOC(=O)c1c(/N=C/c2c(O)n(-c3ccccc3F)c(=S)[nH]c2=O)sc2c1CCCC2 | inconclusive: 31.6 µM [inhibitor, partial curve] | 
11 | O=C(Cc1cc(=O)[nH][nH]1)N/N=C/c1ccccc1Cl | inconclusive: 3.16 µM [inhibitor, partial curve] | 
12 | Cc1nn(C(C)(C)C)c(C)c1/C=N/OC(=O)Nc1ccc(Cl)c(Cl)c1 | inconclusive: 17.8 µM [inhibitor, partial curve, poor fit] | 
13 | CN1CCC23CCCC[C@H]2C1Cc1ccc(O)cc13 (some centres not stated) | inconclusive: 35.5 µM [inhibitor, partial curve] | 
14 | COc1cc(O)c(C(=O)O)c(-c2cc(O)c(O)cc2C)c1 | inconclusive: 28.2 µM [inhibitor, partial curve] | 
15 | O=c1[nH]c(CN2CC=C(c3ccccc3)CC2)nc2scc(-c3ccccc3)c12 | inconclusive: 39.8 µM [inhibitor, single point] | 
16 | CCc1ccc(NC(=O)c2ccc(F)c(S(=O)(=O)N3CCc4ccccc4C3)c2)cc1 | inconclusive: 44.7 µM [inhibitor, single point] | 
17 | S=C(S)N1CCCC1 | inconclusive: 4.47 µM [inhibitor, full curve] and inconclusive: 39.8 µM [inhibitor, single point] | 
18 | O=C1NC(=O)N(CCc2ccc(F)cc2)C(=O)/C1=C\C=C\c1ccccc1 | inconclusive: 39.8 µM [inhibitor, partial curve, poor fit] | 
19 | COc1ccc(OC)c(N2C(=O)NC(=O)/C(=C/c3ccc([N+](=O)[O-])s3)C2=O)c1 | active: 14.1 µM | 
20 | CC(=O)NC(Cc1ccc(N(CCCl)CCCl)cc1)C(=O)NC(CC(C)C)C(=O)O (configuration not stated) |  | inactive: 3.24%
21 | CCOc1ccc(CC(=O)Nc2ccc3c(c2)N(C)C(=O)c2ccccc2S3)cc1OCC | inconclusive: 15.8 µM [inhibitor, partial curve] | 

Row | SMILES | Potency | activity, negative = inhibition
22 | COc1ccccc1CNC(=O)Cn1c(=O)oc2cc(Cl)ccc21 | inconclusive: 0.794 µM [inhibitor, single point] | 
23 | NC(=O)c1ccc(N=Cc2c(O)n(Cc3ccco3)c(=O)[nH]c2=O)cc1 | inconclusive: 22.4 µM [inhibitor, single point] | 
24 | CC(C)CNC(=O)c1c(N)n(Cc2ccc3c(c2)OCO3)c2nc3ccccc3nc12 | inconclusive: 10 µM [inhibitor, partial curve] | 
25 | Cc1nn(CCC#N)c2c1P(=S)(N1CCCC1)OC(c1ccc(F)cc1)=N2 (configuration not stated) | inconclusive: 20 µM [inhibitor, partial curve] | 
26 | CC[C@@H]1C(=O)OC[C@@H]1Cc1cncn1C | inconclusive: 22.4 µM [inhibitor, single point] | 
27 | O=C(O)c1ccccc1-c1c2cc(Br)c(=O)cc-2oc2[c]([Hg])c(O)c(Br)cc12 | inconclusive: 22.4 µM [inhibitor, partial curve] | 
28 | COc1cccc(C(=O)Nc2ccc(-c3cc(C(F)(F)F)nn3-c3ccccc3)cc2)c1 | inconclusive: 12.6 µM [inhibitor, partial curve] | 
29 | Cn1ccnc1P(=S)(c1nccn1C)N1CCOCC1 |  | inactive: 2.31%
30 | CCOc1ccc(/C=C2/C(=O)NC(=O)N(CCc3ccc(F)cc3)C2=O)cc1 |  | inactive: 7.12%
31 | CCCOC(=O)c1c(N)n(Cc2cccs2)c2nc3ccccc3nc12 | inconclusive: 44.7 µM [inhibitor, single point] | 
32 | C=CCN1C(=O)NC(=O)/C(=C/c2cnc(SC)nc2)C1=O | inconclusive: 22.4 µM [inhibitor, partial curve] | 
33 | CCOC(=O)Cn1cc([N+](=O)[O-])nc1[N+](=O)[O-] |  | inactive: 1.24%
34 | Cc1ccc(Cl)c2sc(NC(=O)c3ccc(S(=O)(=O)N4CCCC4)cc3)nc12 | inconclusive: 12.6 µM [inhibitor, partial curve] | 
35 | O=C(NCc1c(-n2cccc2)sc2c1CCCC2)Nc1cccc(C(F)(F)F)c1 | inconclusive: 39.8 µM [inhibitor, single point] | 
36 | Nc1ccc(C2(c3ccc(N)cc3)c3ccccc3-c3ccccc32)cc1 | inconclusive: 5.62 µM [activator, full curve] | 
37 | Cc1cc(NC(=O)CCl)no1 |  | inactive: -1.67%
38 | O=C(Nc1cccc(Cl)c1)OC1CN2CCC1CC2 (configuration not stated) | inconclusive: 2.51 µM [inhibitor, full curve] | 
39 | Cc1ccc2oc(-c3ccccc3)cc(=O)c2c1 | inconclusive: 20 µM [inhibitor, single point] | 
40 | CC(=O)OC(C)(C)/C=C/C(=O)[C@](C)(O)[C@H]1[C@H](O)C[C@@]2(C)[C@@H]3CC=C4[C@H](C[C@H](O)C(=O)C4(C)C)[C@]3(C)C(=O)C[C@]12C |  | inactive: -5%
41 | CC(/C=C(\C)Nc1ccccc1)=Nc1ccccc1 |  | inactive: 3.25%
42 | CCCCCCCCCCCCCCCC(=O)OC[C@H](COP(=O)([O-])OCC[N+](C)(C)C)OC(C)=O | inconclusive: 0.398 µM [inhibitor, partial curve] | 

Row | SMILES | Potency | activity, negative = inhibition
43 | CN(C)P(=O)(C(Cl)=C(N1CCCCC1)N1CCCCC1)N(C)C | inconclusive: 35.5 µM [inhibitor, partial curve] | 
44 | O=C1NC(=O)N(c2ccccc2)C(=O)/C1=C\C=C\c1ccccc1 | inconclusive: 12.6 µM [inhibitor, partial curve] | 
45 | C/C=C(/C)C(=O)O[C@H]1C(C)=C2C([C@@H]1OC(=O)CCCCCCC)[C@@](C)(OC(C)=O)C[C@@H](OC(=O)CCC)[C@@]1(O)[C@H]2OC(=O)[C@@]1(C)O (some centres not stated) | inconclusive: 0.126 µM [inhibitor, partial curve, poor fit] | 
46 | CCN(CC)c1ccc(/C=N/c2sc3c(c2C#N)C2CCN3CC2)c(O)c1 | inconclusive: 3.98 µM [activator, single point] | 
47 | COc1cc(C2C(C#N)=C(N)Oc3n[nH]c(-c4cccnc4)c32)ccc1OCC(N)=O (configuration not stated) | inconclusive: 15.8 µM [inhibitor, single point] | 
48 | CN1C2CCC1/C(=C/c1ccccn1)C(=O)/C2=C\c1ccccn1 | inconclusive: 4.47 µM [inhibitor, full curve] | 
49 | COCCCn1c(N)c(C(=O)Nc2ccccc2)c2nc3ccccc3nc21 | inconclusive: 2.24 µM [inhibitor, full curve] | 
50 | COC(=O)C1=Nc2ccccc2/C1=C\c1c(O)n(-c2ccc(OC)cc2)c(=O)[nH]c1=O | inconclusive: 22.4 µM [inhibitor, partial curve] | 
51 | C[C@]12C=CC(=O)C=C1CC[C@@H]1[C@@H]2CC[C@@]2(C)[C@H]1CC[C@]2(C)O | inconclusive: 1 µM [inhibitor, full curve] | 
52 | C[N+]1=Cc2cc3c(cc2CC1)OCO3 | inconclusive: 2.82 µM [inhibitor, full curve] | 
53 | COc1cc2[nH]c(=O)n(Cc3ccc(C(=O)N4CCN(c5ccc(Cl)cc5)CC4)cc3)c(=O)c2cc1OC | inconclusive: 44.7 µM [inhibitor, single point] | 
54 | Cc1cc(NS(=O)(=O)c2ccc(N)cc2)no1 | inconclusive: 8.91 µM [inhibitor, single point] | 
55 | C=CCN1C(=O)NC(=O)/C(=C/c2ccoc2)C1=O | inconclusive: 39.8 µM [inhibitor, single point] | 
56 | CCOC(=O)C(O)(c1ccc(NC(=S)NC(=O)c2ccc(Cl)cc2Cl)cc1)C(F)(F)F (configuration not stated) | inconclusive: 0.631 µM [inhibitor, partial curve] | 
57 | CN1Cc2ccccc2[C@@H]2c3cccc4[nH]cc(c34)C[C@H]21 | inconclusive: 12.6 µM [inhibitor, partial curve] | 
58 | O=C1NC(=O)N(CCC2=CCCCC2)C(=O)/C1=C/c1ccc(O)cc1 | inconclusive: 22.4 µM [inhibitor, single point] | 
59 | Cc1cc(C=C2C(=O)NC(=O)NC2=O)c(C)n1-c1ccncc1 | inconclusive: 22.4 µM [inhibitor, partial curve] | 
60 | CCc1cc2c(nc1CC)CCN(CC/C(C)=N/OC)C2 | inconclusive: 1.58 µM [inhibitor, single point] | 
61 | NC(=O)c1ccc(C(=O)Nc2ccc([As](=O)(O)O)cc2)cc1 | inconclusive: 5.01 µM [inhibitor, single point] | 
62 | COC(=O)C1C(O)C(C)C(O)C(C)/C=C\C=C(/C)C(=O)Nc2c(C)c(OC(C)=O)c3c(c2O)C(=O)C(C)=C2OCOC(=C23)/C(C)=C/C(C)(O)C(O)C(C)C1O (configuration not stated) | inconclusive: 31.6 µM [inhibitor, single point] | 
